Experimental data: patent publication US20160002318A1

B1: CR10049 (antibody, V domains shown)
VH: EVQLVESGGGLVQPGGSLRLSCAASGFTFSSYAMSWVRQAPGKGLEWVSRLSDESTTYYADSVKGRFTISRDNSKNTLYLQMNSLKADDTAIYYCAEDLGTVMDSYYYGMNVWGPGTTVTVS
VL: [in this place about 120 residues]
B2: CR10051 (antibody, V domains shown)
VH: EVQLVQSGAEVKKPGASVELSCKASGDTFTNYHIHWVRQAPGQGLEWMGIINPSGGDTDYSQKFQGRVTLTRDRSTNTFYMKLASLRSEDTAVYYCATDESPGLLTGLRDYWYYYGMDVWGQGTTVTVS
VL: [in this place about 100 residues]SFGQGTKLEIK

Legend:
Assay in all cases: cell-based or functional assay
[1] = biological target: HA of influenza B virus B/Harbin/7/1994 (live virus) (influenza B virus B/Harbin/7/1994)
[2] = biological target: HA of influenza B virus B/Florida/04/2006 (live virus) (influenza B virus B/Florida/04/2006)
[3] = biological target: HA of influenza B virus B/Malaysia/2506/2004 (live virus) (influenza B virus B/Malaysia/2506/2004)
[4] = biological target: HA of influenza B virus B/Brisbane/60/2008 (live virus) (influenza B virus B/Brisbane/60/2008)

Binder	HI titers [1] [µg/mL]	VNA titers [1] [µg/mL]	HI titers [2] [µg/mL]	VNA titers [2] [µg/mL]	HI titers [3] [µg/mL]	VNA titers in µg/ml (*assay was done with 25 TCIDs) [3] [µg/mL]	HI titers [4] [µg/mL]	VNA titers [4] [µg/mL]
B1	> 50	4.42	1.1	1.3	4.42	25	35.4	35.4
B2	> 50	0.28	> 50	0.63	> 50	1.77	> 50	1.51
